Measurements as given in PMC4336329 (PLoS ONE, 2015).
Screen size: about 310,000 compounds; about 14,000 (4.5%) showed an effect of 50% or more. The effect is printed as a negative number. Some of the results follow.

biological target: human ether-à-go-go-related gene (hERG) potassium channel (human, UniProt Q12809); experiment: primary screen, population patch clamp on CHO cells stably expressing hERG
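Also: peak tail current of the secondary pulse compared with the same well before compound.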

Chain of human ether-à-go-go-related gene (hERG) potassium channel (Q12809 whole entry, looked up): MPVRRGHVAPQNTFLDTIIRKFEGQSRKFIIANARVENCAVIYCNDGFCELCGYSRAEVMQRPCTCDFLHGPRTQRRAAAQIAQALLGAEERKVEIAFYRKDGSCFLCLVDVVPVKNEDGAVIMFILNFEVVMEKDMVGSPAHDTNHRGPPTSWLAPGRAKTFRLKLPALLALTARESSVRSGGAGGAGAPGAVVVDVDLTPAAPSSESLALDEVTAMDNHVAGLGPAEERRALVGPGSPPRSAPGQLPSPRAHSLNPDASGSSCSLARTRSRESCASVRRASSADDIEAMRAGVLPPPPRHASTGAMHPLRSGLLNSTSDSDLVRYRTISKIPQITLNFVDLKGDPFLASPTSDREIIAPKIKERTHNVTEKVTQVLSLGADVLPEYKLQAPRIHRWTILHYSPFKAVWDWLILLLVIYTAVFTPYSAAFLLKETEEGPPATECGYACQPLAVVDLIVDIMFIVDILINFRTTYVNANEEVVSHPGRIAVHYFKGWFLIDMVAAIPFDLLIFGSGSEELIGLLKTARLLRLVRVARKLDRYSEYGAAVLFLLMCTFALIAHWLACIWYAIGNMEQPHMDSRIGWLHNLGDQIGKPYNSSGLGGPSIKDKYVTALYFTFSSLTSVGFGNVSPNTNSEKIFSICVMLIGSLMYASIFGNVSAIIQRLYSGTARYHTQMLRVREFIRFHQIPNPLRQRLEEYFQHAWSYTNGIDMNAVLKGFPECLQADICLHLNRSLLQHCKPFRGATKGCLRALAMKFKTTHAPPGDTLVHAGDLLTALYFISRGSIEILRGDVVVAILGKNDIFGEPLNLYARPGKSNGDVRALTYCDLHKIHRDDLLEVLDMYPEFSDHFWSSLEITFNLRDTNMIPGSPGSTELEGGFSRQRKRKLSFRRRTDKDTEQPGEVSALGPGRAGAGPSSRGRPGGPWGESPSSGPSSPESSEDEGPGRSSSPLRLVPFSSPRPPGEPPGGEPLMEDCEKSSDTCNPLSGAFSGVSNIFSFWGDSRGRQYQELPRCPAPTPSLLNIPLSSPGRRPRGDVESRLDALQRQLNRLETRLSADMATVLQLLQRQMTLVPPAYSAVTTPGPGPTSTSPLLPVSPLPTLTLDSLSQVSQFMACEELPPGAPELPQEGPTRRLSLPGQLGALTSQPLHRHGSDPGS

Going from `O=C(COC(=O)C1CCN(S(=O)(=O)c2cccs2)CC1)c1ccccc1` to `CCOc1ccc(C(=O)Nc2ccccc2N2CCCC2)cc1`, the “hERG current change (%, negative = inhibition) at 10uM” value falls from 20.6% to -22.8%.

Going from `Clc1ccc(OCCCCCN2CCCC2)c(Br)c1` to `COc1ccc(S(N)(=O)=O)cc1C(=O)NCC1(N2CCCCC2)CCCCC1`, the “hERG current change (%, negative = inhibition) at 10uM” value rises from -62.3% to -20.2%.

Compared with `Cn1cc(-c2cc(C(=O)O)on2)cn1`, `CNC(=O)c1oc(-c2ccccc2)nc1C` is higher in “hERG current change (%, negative = inhibition) at 10uM” value: 8.19% for the first, 12.4% for the second.

First: CCc1nn(CCCC(=O)NC(C)c2ccccc2)c(=O)c2cc3occc3n12 (stereo not shown)
Second: CCOC(=O)c1sc(NC(=O)CSc2n[nH]c(-c3ccccc3)n2)c(C#N)c1C
The “hERG current change (%, negative = inhibition) at 10uM” value of the first is lower: -16.4% for the first, -5.57% for the second.

Going from `COc1cc(/C=N/N(C)c2ccccc2)cc(Cl)c1O` to `Nc1cc(C(=O)N/N=C/c2cccc([N+](=O)[O-])c2)n[nH]c1=O`, the “hERG current change (%, negative = inhibition) at 10uM” value falls from 16.6% to 7.18%.

Compared with `O=C(/C=C/c1ccco1)NCC(=O)N/N=C/c1ccc([N+](=O)[O-])cc1`, `Cc1ccc(NC(=O)C(=O)NCc2ccc(/C=C(/C#N)C(=O)NCc3cccnc3)o2)cc1` is lower in “hERG current change (%, negative = inhibition) at 10uM” value: -0.504% for the first, -17.7% for the second.

First: Cc1ccsc1C(=O)N1CCN(c2ccccn2)CC1
Second: CC(C)C(=O)N1CCN(c2ccccc2NC(=O)Cc2ccc(Cl)cc2)CC1
The “hERG current change (%, negative = inhibition) at 10uM” value of the first is higher: 20.4% for the first, -69.7% for the second.

First: COc1cc(/C=C/C(=O)OCC(=O)N2CCC(C)CC2)ccc1OCC#N
Second: Cc1ccc(OCC(O)CN2CCOCC2)cc1C.Cl (stereo not shown)
The “hERG current change (%, negative = inhibition) at 10uM” value of the first is lower: -9.56% for the first, 17.7% for the second.

Compared with `O=CN1CCN(C(C(=O)NC2CCCC2)c2ccc(Cl)cc2)CC1` (stereo not shown), `CN1CCN(C(=S)SCC(=O)Nc2nc(-c3ccccc3)c(-c3ccccc3)o2)CC1` is higher in “hERG current change (%, negative = inhibition) at 10uM” value: -14.8% for the first, -12% for the second.

Compared with `COc1ccc([C@H]2CC(=O)C=C(c3cc(C(F)(F)F)cc(C(F)(F)F)c3)C2)cc1`, `N#Cc1c(C(F)(F)F)cc(-c2cccc(Cl)c2)[nH]c1=O` is higher in “hERG current change (%, negative = inhibition) at 10uM” value: 4.42% for the first, 25.2% for the second.

First: CCOc1ccc(NS(=O)(=O)c2cc(NC(=O)CCC(=O)c3cccs3)ccc2Cl)cc1
Second: Cn1cc(S(=O)(=O)Nc2cccc(F)c2)c(=O)n(C)c1=O
The “hERG current change (%, negative = inhibition) at 10uM” value of the first is higher: 19.3% for the first, -16.9% for the second.

First: Cc1cccc(NC(=S)NCC(c2cccnc2)N2CCOCC2)c1 (stereo not shown)
Second: C/C(=N\NS(C)(=O)=O)c1ccc(C)cc1
The “hERG current change (%, negative = inhibition) at 10uM” value of the first is higher: 6.72% for the first, -2.18% for the second.

For `CCOC(=O)CCC(=O)N1CCOCCOCCN(C(=O)CCC(=O)OCC)CCOCCOCC1`, the “hERG current change (%, negative = inhibition) at 10uM” value was 11.3%.
